Measurements as given in paper PMC4336329 (PLoS ONE, 2015).
The campaign covered roughly 310,000 compounds. About 2,200 (0.71%) showed an effect of 50% or more. Effects have a minus sign here. This is one part of the list.

Biological target: human ether-à-go-go-related gene (hERG) potassium channel (human, UniProt Q12809)
Assay: primary screen, population patch clamp on CHO cells stably expressing hERG

Chain of human ether-à-go-go-related gene (hERG) potassium channel (Q12809 whole entry, looked up): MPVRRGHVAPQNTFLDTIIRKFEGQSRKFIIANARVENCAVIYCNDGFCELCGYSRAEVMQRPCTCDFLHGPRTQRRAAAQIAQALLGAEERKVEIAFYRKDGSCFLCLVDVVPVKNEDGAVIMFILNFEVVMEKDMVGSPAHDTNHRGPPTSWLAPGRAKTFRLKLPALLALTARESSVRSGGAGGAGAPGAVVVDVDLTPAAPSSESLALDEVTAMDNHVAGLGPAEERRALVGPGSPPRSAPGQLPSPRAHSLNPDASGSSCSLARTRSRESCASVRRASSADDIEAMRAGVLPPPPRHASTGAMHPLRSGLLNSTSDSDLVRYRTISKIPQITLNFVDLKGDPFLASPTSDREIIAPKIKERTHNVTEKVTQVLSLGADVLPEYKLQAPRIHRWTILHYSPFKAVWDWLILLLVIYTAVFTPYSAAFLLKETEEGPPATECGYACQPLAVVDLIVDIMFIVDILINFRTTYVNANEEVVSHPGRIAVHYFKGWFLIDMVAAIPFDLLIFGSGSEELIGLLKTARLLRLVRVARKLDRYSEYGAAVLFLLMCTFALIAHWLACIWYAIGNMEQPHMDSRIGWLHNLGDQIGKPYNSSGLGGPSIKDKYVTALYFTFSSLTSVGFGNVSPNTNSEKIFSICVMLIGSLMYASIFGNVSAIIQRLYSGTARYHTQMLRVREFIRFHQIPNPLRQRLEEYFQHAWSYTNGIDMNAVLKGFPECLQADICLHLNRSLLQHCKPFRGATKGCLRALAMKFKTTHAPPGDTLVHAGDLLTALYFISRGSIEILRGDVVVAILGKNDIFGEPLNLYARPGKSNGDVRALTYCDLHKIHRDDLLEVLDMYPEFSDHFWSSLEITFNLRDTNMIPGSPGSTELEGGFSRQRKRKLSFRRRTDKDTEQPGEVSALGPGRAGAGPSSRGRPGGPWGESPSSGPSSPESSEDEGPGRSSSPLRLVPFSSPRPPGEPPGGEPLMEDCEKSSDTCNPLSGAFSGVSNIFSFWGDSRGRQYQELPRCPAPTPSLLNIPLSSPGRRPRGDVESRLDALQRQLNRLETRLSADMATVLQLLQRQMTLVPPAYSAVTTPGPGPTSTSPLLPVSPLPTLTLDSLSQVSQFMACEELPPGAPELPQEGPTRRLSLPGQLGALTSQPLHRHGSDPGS

| SMILES | hERG current change (%, negative = inhibition) at 1uM [%] |
| --- | --- |
| CCOc1ccc(NS(=O)(=O)c2ccc3[nH]c(=O)[nH]c3c2)cc1 | 24.2 |
| Cc1ccc(/C=N/NC(=O)c2ccc3nc[nH]c3c2)s1 | 9.64 |
| CN(C)c1ccc(NC(=O)CCN2C(=O)c3cccc([N+](=O)[O-])c3C2=O)cc1 | 7.72 |
| O=C(CNC(=O)c1ccccc1F)NCC(c1cccs1)N1CCOCC1 (stereo not shown) | 3.5 |
| CCN1CCN(Cc2c(O)ccc3c2O/C(=C\c2ccc(C)cc2)C3=O)CC1 | 1.33 |
| CC1(C)CC(=O)C(C=NCCN2CCOCC2)=C(O)C1 | 11.7 |
| COc1ccc(C2=NN(CCC(=O)NCC3CCCO3)C(=O)CC2)cc1 (stereo not shown) | 15.2 |
| CCC(C)(C(=O)NC1CCCC1)N(C(C)=O)c1ccc(C)cc1 (stereo not shown) | -2.27 |
| COc1ccccc1C1CCN(Cc2cccc([N+](=O)[O-])c2)CC1 | -15 |
| Cc1sc(NC(=O)c2ccccc2)c(C(=O)NC(C)C)c1C | 8.36 |
| C=CCOc1ccc(/C=C\c2nc(O)c([N+](=O)[O-])c(=O)[nH]2)cc1OCC | 18.5 |
| O=C(C=C1NCCN1)c1ccccc1 | 16.2 |
| CCc1nnc(NS(=O)(=O)c2ccc(NC(=O)c3ccccc3)cc2)s1 | 10.4 |
| CC(C)(C)c1ccc(S(=O)(=O)Nc2ccc(C(=O)N3CCCC3)cc2)cc1 | -4.4 |
| CC(C)(C)c1ccc(NC(=O)COC(=O)c2ccc(CN3CCCC3=O)cc2)cc1 | 1.8 |
| Cc1ccc(NC(=O)C(=O)c2ccc(C)cc2)cc1 | 13.5 |
| COC(=O)COc1cccc2c(=O)n(CC(=O)N3CCCCC3)ccc12 | 3.87 |
| C=CCN1C(=O)/C(=C/c2cccs2)C(=O)NC1=S | 9.76 |
| C#CCOCCOCCOCCNc1nc(N2CCN(C(=O)[C@H](CCCCN)n3cc([C@@H](N)C(C)CC)nn3)CC2)nc(N2CCN(C(=O)[C@H](Cc3ccc(O)cc3)n3cc([C@@H](N)C(C)CC)nn3)CC2)n1.Cl (stereo partly shown) | 11.5 |
| CC(=O)Nc1ccc(S(=O)(=O)NCCSCc2cccc(Cl)c2)cc1 | 11.2 |
| N#Cc1ccc(OCC(=O)N2CCN(S(=O)(=O)c3ccc(Cl)s3)CC2)cc1 | -22.7 |
| COc1ccccc1-n1ccnc1SCC(=O)NC1CCCC1 | 15.1 |
| O=c1cc(N2CCc3ccccc32)[nH]c(=O)n1-c1ccccc1Cl | 16.6 |
| COC(=O)C1=C(CN2CCSCC2)NC(=O)NC1c1cc(C)ccc1C (stereo not shown) | 1.86 |
| Cc1cccc(C)c1NC(=O)N1CCC(C(=O)c2ccc(F)cc2)CC1 | -17 |
| CCOC(=O)C(C)On1c(SC(C)C(=O)OCC)nc2ccccc2c1=O (stereo not shown) | -22 |
| O=C(Cc1cccs1)NNC(=S)NC(=O)c1ccco1 | 15.7 |
| CCN(CC(=O)NCc1ccc(F)cc1)C(=O)/C=C/c1ccc(OC)cc1 | -3.96 |

| SMILES | hERG current change (%, negative = inhibition) at 1uM [%] |
| --- | --- |
| COc1ccc(Cc2nc(-c3ccc(-n4cccc4)cc3)no2)cc1 | 6.19 |
| CCn1cc(C(=O)N2CC=C(c3ccccc3)CC2)c(=O)c2ccc(C)nc21 | -0.904 |
| Cc1ccccc1C(=O)OC(C)C(=O)NCc1ccc2c(c1)OCO2 (stereo not shown) | 1.46 |
| COc1ccc(S(=O)(=O)N2CCCC2)c2ccccc12 | 21 |
| OCc1c[nH]c(=S)n1CCOc1cccc(C(F)(F)F)c1 | 12.7 |
| Cc1ccc2c(c1)N(CCC(=O)NCCN1CCOCC1)C(=O)CO2 | 7.66 |
| CN1CCC(=NNC(=O)CN(c2cccc(Br)c2)S(C)(=O)=O)CC1 | 1.22 |
| CCN(CC)CCNC(=O)c1ccc(NC(=O)C2CCN(c3ncnc4sc(C)c(C)c34)CC2)cc1 | 15.7 |
| Cc1ccc(O)c(NC(=O)c2cc3nc4c(c(C(F)(F)F)n3n2)CCc2ccccc2-4)c1 | 2.48 |
| O=C(CSc1nnc(-c2ccc(O)cc2)n1Cc1ccccc1)NNC(=O)c1ccc(Br)cc1 | 0.228 |
| O=C(NNC(=O)c1ccccc1Br)c1ccc(Cl)c(Cl)c1 | -0.397 |
| CC(C(=O)Nc1ncc2c(n1)CC(C)(C)CC2=O)N1C(=O)c2ccccc2C1=O (stereo not shown) | -12 |
| CCC12CN3CCN(CC(C3)/C1=N\NC(=O)c1ccc(Cl)cc1)C2 | 1 |
| Cc1cc(C)n(CC(=O)NNC(=O)COc2ccc(Cl)cc2Cl)n1 | 3.06 |
| COc1cc(OC)c2c(c1)C(=O)OC2 | -3.87 |
| C=CCOc1cccc(C2/C(=C(\O)c3ccc(F)cc3)C(=O)C(=O)N2CCN(C)C)c1 (stereo not shown) | 8.84 |
| COc1ccc(C)cc1NC(=O)CCCN1C(=S)NC(C)(C)CC1C (stereo not shown) | 14.7 |
| CCN(CC)NC(=S)Nc1ccccc1 | 9.86 |
| COc1ccc(CCN(CC(=O)NC2CCCC2)C(=O)CCC(=O)Nc2cc(C)on2)cc1OC | 9.11 |
| COc1cc(C(F)(F)F)c(C(=O)N(C)c2ccc(Cl)cc2)cn1 | 7.06 |
| COC(=O)c1ccc(COC(=O)c2ccc(S(=O)(=O)N3CCC(C)CC3)cc2)o1 | 7.53 |
| Cn1c(=O)oc2cc(S(=O)(=O)N3CCC(C(=O)NCc4ccc(F)cc4)CC3)ccc21 | 4.7 |
| CCCc1nc2ccccc2c(C(=O)OCc2nnc(-c3cc(OC)c(OC)c(OC)c3)o2)c1CC | 10.1 |
| COC(=O)c1c(-c2ccncc2)csc1NC(=O)c1ccoc1C | 4.49 |
| O=C(NCCc1ccccc1)C(=O)NCC1OCCN1S(=O)(=O)c1ccc2c(c1)OCCO2 (stereo not shown) | 15.3 |
| CC(C)(OC(=O)NC(=O)C(F)(F)F)C(C)(C)OC(=O)NC(=O)C(F)(F)F | 23.9 |
| CC(=O)N1CCOc2cc(S(=O)(=O)N3CCN(c4ccccc4)CC3)c(Cl)cc21 | 12.7 |
